# Results: the supplement of paper PMC8728848
# The other results are listed elsewhere or left out.
# B1: CV-2L (Chromobacterium violaceum), Q7NX84 (protein)
# chain: MAQQGVFTLPARINFGVTVLVNSAATQHVEIFVDNEPRAAFSGVGTGDNNLGTKVINSGSGNVRVQITANGRQSDLVSSQLVLANKLNLAVVGSEDGTDMDYNDSIVILNWPLG
# How the values were obtained:
# Assay in all cases: glycan array binding signal (z-score within array); higher = stronger binding
# Details in all cases: glycan notation: IUPAC condensed, linker removed
# [1] = target: Gal(b1-3)[Fuc(a1-4)]GlcNAc(b1-3)Gal(b1-4)GlcNAc
# Summary of the method: (§1)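 The Consortium for Functional Glycomics database supplied 3228 glycan arrays, of which those lacking an available protein sequence were dropped. The binding signal, a within-array Z-score, was averaged across arrays of the same protein sequence and across linkers. Negative scores can be read as non-binding.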
# [2] = target: Gal(b1-3)[Fuc(a1-4)]GlcNAc(b1-3)Gal(b1-4)[Fuc(a1-3)]GlcNAc
# Summary of the method: as §1
# [3] = target: Gal(b1-3)[GlcNAc(b1-6)]GalNAc
# Summary of the method: as §1
# [4] = target: Gal(b1-3)[Neu5Ac(a2-6)]GalNAc
# Summary of the method: as §1
# [5] = target: Gal(b1-3)[Neu5Ac(a2-6)]GlcNAc(b1-6)Gal(b1-4)Glc
# Summary of the method: as §1
# [6] = target: Gal(b1-3)[Neu5Ac(b2-6)]GalNAc
# Summary of the method: as §1
# Gal(b1-4)Gal = target: Gal(b1-4)Gal
# Summary of the method: as §1
# [7] = target: Gal(b1-4)GalNAc(a1-3)[Fuc(a1-2)]Gal(b1-4)GlcNAc
# Summary of the method: as §1
# [8] = target: Gal(b1-4)GalNAc(b1-3)[Fuc(a1-2)]Gal(b1-4)GlcNAc
# Summary of the method: as §1
# Gal(b1-4)Glc = target: Gal(b1-4)Glc
# Summary of the method: as §1
# Gal(b1-4)Glc6S = target: Gal(b1-4)Glc6S
# Summary of the method: as §1
# Gal(b1-4)GlcNAc = target: Gal(b1-4)GlcNAc
# Summary of the method: as §1
# [9] = target: Gal(b1-4)GlcNAc(a1-6)Gal(b1-4)GlcNAc
# Summary of the method: as §1
# Gal(b1-4)GlcNAc(b1-2)Man = target: Gal(b1-4)GlcNAc(b1-2)Man
# Summary of the method: as §1
# [10] = target: Gal(b1-4)GlcNAc(b1-2)Man(a1-3)Man(b1-4)GlcNAc(b1-4)GlcNAc
# Summary of the method: as §1
# [11] = target: Gal(b1-4)GlcNAc(b1-2)Man(a1-3)[Gal(b1-4)GlcNAc(b1-2)Man(a1-6)]Man(b1-4)GlcNAc(b1-4)GlcNAc
# Summary of the method: as §1
# [12] = target: Gal(b1-4)GlcNAc(b1-2)Man(a1-3)[Gal(b1-4)GlcNAc(b1-2)Man(a1-6)]Man(b1-4)GlcNAc(b1-4)[Fuc(a1-6)]GlcNAc
# Summary of the method: as §1
# [13] = target: Gal(b1-4)GlcNAc(b1-2)Man(a1-3)[Gal(b1-4)GlcNAc(b1-2)][GlcNAc(b1-4)]Man(b1-4)GlcNAc(b1-4)GlcNAc
# Summary of the method: as §1
# [14] = target: Gal(b1-4)GlcNAc(b1-2)Man(a1-3)[GlcNAc(b1-2)Man(a1-6)]Man(b1-4)GlcNAc(b1-4)GlcNAc
# Summary of the method: as §1
# [15] = target: Gal(b1-4)GlcNAc(b1-2)Man(a1-3)[Man(a1-6)]Man(b1-4)GlcNAc(b1-4)GlcNAc
# Summary of the method: as §1
# [16] = target: Gal(b1-4)GlcNAc(b1-2)Man(a1-6)Man(b1-4)GlcNAc(b1-4)GlcNAc
# Summary of the method: as §1
# [17] = target: Gal(b1-4)GlcNAc(b1-2)Man(a1-6)[GlcNAc(b1-2)Man(a1-3)]Man(b1-4)GlcNAc(b1-4)GlcNAc
# Summary of the method: as §1
# [18] = target: Gal(b1-4)GlcNAc(b1-2)Man(a1-6)[Man(a1-3)]Man(b1-4)GlcNAc(b1-4)GlcNAc
# Summary of the method: as §1
# [19] = target: Gal(b1-4)GlcNAc(b1-2)[Gal(b1-4)GlcNAc(b1-4)]Man(a1-3)[Gal(b1-4)GlcNAc(b1-2)Man(a1-6)]Man(b1-4)GlcNAc(b1-4)GlcNAc
# Summary of the method: as §1
# [20] = target: Gal(b1-4)GlcNAc(b1-2)[Gal(b1-4)GlcNAc(b1-4)]Man(a1-3)[Gal(b1-4)GlcNAc(b1-2)[Gal(b1-4)GlcNAc(b1-6)]Man(a1-6)]Man(b1-4)GlcNAc(b1-4)GlcNAc
# Summary of the method: as §1
# [21] = target: Gal(b1-4)GlcNAc(b1-2)[Gal(b1-4)GlcNAc(b1-4)]Man(a1-3)[GlcNAc(b1-4)][Gal(b1-4)GlcNAc(b1-2)Man(a1-6)]Man(b1-4)GlcNAc(b1-4)GlcNAc
# Summary of the method: as §1
# [22] = target: Gal(b1-4)GlcNAc(b1-2)[Gal(b1-4)GlcNAc(b1-4)]Man(a1-3)[GlcNAc(b1-4)][Gal(b1-4)GlcNAc(b1-2)[Gal(b1-4)GlcNAc(b1-6)]Man(a1-6)]Man(b1-4)GlcNAc(b1-4)GlcNAc
# Summary of the method: as §1
# [23] = target: Gal(b1-4)GlcNAc(b1-2)[Gal(b1-4)GlcNAc(b1-6)]Man(a1-6)[Gal(b1-4)GlcNAc(b1-2)Man(a1-3)]Man(b1-4)GlcNAc(b1-4)GlcNAc
# Summary of the method: as §1
# [24] = target: Gal(b1-4)GlcNAc(b1-2)[Gal(b1-4)GlcNAc(b1-6)]Man(a1-6)[GlcNAc(b1-4)][Gal(b1-4)GlcNAc(b1-2)Man(a1-3)]Man(b1-4)GlcNAc(b1-4)GlcNAc
# Summary of the method: as §1
# [25] = target: Gal(b1-4)GlcNAc(b1-3)Gal(b1-3)GlcNAc
# Summary of the method: as §1
# [26] = target: Gal(b1-4)GlcNAc(b1-3)Gal(b1-4)Glc
# Summary of the method: as §1
# [27] = target: Gal(b1-4)GlcNAc(b1-3)Gal(b1-4)GlcNAc
# Summary of the method: as §1
# [28] = target: Gal(b1-4)GlcNAc(b1-3)Gal(b1-4)GlcNAc(b1-3)Gal(b1-4)GlcNAc
# Summary of the method: as §1
# [29] = target: Gal(b1-4)GlcNAc(b1-3)Gal(b1-4)[Fuc(a1-3)GlcNAc(b1-6)]Gal(b1-4)Glc
# Summary of the method: as §1
# [30] = target: Gal(b1-4)GlcNAc(b1-3)Gal(b1-4)[Fuc(a1-3)]GlcNAc(b1-3)Gal(b1-4)[Fuc(a1-3)]GlcNAc
# Summary of the method: as §1
# [31] = target: Gal(b1-4)GlcNAc(b1-3)GalNAc
# Summary of the method: as §1
# [32] = target: Gal(b1-4)GlcNAc(b1-3)[Gal(b1-4)GlcNAc(b1-6)]Gal(b1-4)GlcNAc
# Summary of the method: as §1
# [33] = target: Gal(b1-4)GlcNAc(b1-3)[Gal(b1-4)GlcNAc(b1-6)]GalNAc
# Summary of the method: as §1
# [34] = target: Gal(b1-4)GlcNAc(b1-3)[GlcNAc(b1-6)]Gal(b1-4)GlcNAc
# Summary of the method: as §1
# [35] = target: Gal(b1-4)GlcNAc(b1-6)Gal(b1-4)GlcNAc
# Summary of the method: as §1
# [36] = target: Gal(b1-4)GlcNAc(b1-6)GalNAc
# Summary of the method: as §1
# [37] = target: Gal(b1-4)GlcNAc(b1-6)[Gal(b1-3)]GalNAc
# Summary of the method: as §1
# Gal(b1-6)Gal = target: Gal(b1-6)Gal
# Summary of the method: as §1
# Gal3S(b1-3)GalNAc = target: Gal3S(b1-3)GalNAc
# Summary of the method: as §1
# Gal3S(b1-3)GlcNAc = target: Gal3S(b1-3)GlcNAc
# Summary of the method: as §1
binder,measurement,setting,value
B1,glycan array binding signal (z-score),[1],-0.088
same,glycan array binding signal (z-score),[2],0.831
same,glycan array binding signal (z-score),[3],-0.343
same,glycan array binding signal (z-score),[4],-0.348
same,glycan array binding signal (z-score),[5],-0.344
same,glycan array binding signal (z-score),[6],-0.351
same,glycan array binding signal (z-score),Gal(b1-4)Gal,-0.346
same,glycan array binding signal (z-score),[7],-0.341
same,glycan array binding signal (z-score),[8],-0.325
same,glycan array binding signal (z-score),Gal(b1-4)Glc,-0.349
same,glycan array binding signal (z-score),Gal(b1-4)Glc6S,-0.349
same,glycan array binding signal (z-score),Gal(b1-4)GlcNAc,-0.339
same,glycan array binding signal (z-score),[9],-0.341
same,glycan array binding signal (z-score),Gal(b1-4)GlcNAc(b1-2)Man,-0.34
same,glycan array binding signal (z-score),[10],-0.314
same,glycan array binding signal (z-score),[11],-0.346
same,glycan array binding signal (z-score),[12],-0.275
same,glycan array binding signal (z-score),[13],-0.35
same,glycan array binding signal (z-score),[14],-0.323
same,glycan array binding signal (z-score),[15],-0.185
same,glycan array binding signal (z-score),[16],-0.342
same,glycan array binding signal (z-score),[17],-0.342
same,glycan array binding signal (z-score),[18],0.208
same,glycan array binding signal (z-score),[19],-0.29
same,glycan array binding signal (z-score),[20],-0.302
same,glycan array binding signal (z-score),[21],-0.362
same,glycan array binding signal (z-score),[22],-0.334
same,glycan array binding signal (z-score),[23],-0.307
same,glycan array binding signal (z-score),[24],-0.316
same,glycan array binding signal (z-score),[25],-0.343
same,glycan array binding signal (z-score),[26],-0.265
same,glycan array binding signal (z-score),[27],-0.352
same,glycan array binding signal (z-score),[28],-0.346
same,glycan array binding signal (z-score),[29],-0.318
same,glycan array binding signal (z-score),[30],-0.258
same,glycan array binding signal (z-score),[31],-0.342
same,glycan array binding signal (z-score),[32],-0.33
same,glycan array binding signal (z-score),[33],-0.347
same,glycan array binding signal (z-score),[34],-0.339
same,glycan array binding signal (z-score),[35],-0.347
same,glycan array binding signal (z-score),[36],-0.149
same,glycan array binding signal (z-score),[37],-0.341
same,glycan array binding signal (z-score),Gal(b1-6)Gal,-0.345
same,glycan array binding signal (z-score),Gal3S(b1-3)GalNAc,-0.352
same,glycan array binding signal (z-score),Gal3S(b1-3)GlcNAc,-0.33
